Laboratory results: the supplement of paper PMC11417369
± gives the standard deviation of the averaged measurements. This is one part of the list.

These sequences were tested on PfAP2-I AP2 domain 3 (GST-tagged) (assay: gcPBM binding intensity (ln(normalized median fluorescence intensity)); higher = stronger DNA binding).
Procedure, shortened: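 Binding intensity values are the highest Masliner-normalised natural-log median intensity among replicate spots of either probe orientation. The binding step lasted 1 h in 1× PBS with 1% milk, 0.2 mg/ml BSA, 0.5% salmon testes DNA and 0.03% Triton X-100, using GST-tagged P. falciparum DNA-binding domains expressed in E. coli on an Agilent 4 × 180k array of primer-extended double-stranded 36-bp intergenic genomic probes plus negative controls. Alexa488 anti-GST antibody and a 488 nm scan detected bound protein.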
In the case of “AATTTTGAGATGTGGTGTACACAAAATTAGTTAGAC [XGTACX_site7033]”, the “gcPBM binding intensity (ln)” value is reported as 8.94 ± 0.35.
In the case of “TCAACGATCACTCGGTGTACTATAAATGAGAGAATT [XGTACX_site1820]”, the “gcPBM binding intensity (ln)” value is reported as 7.97 ± 0.7.
With “ATATATATATATAAAGGTACACATTTATTAAATATA [XGTACX_site7102]” the “gcPBM binding intensity (ln)” value was 9.23 ± 0.67.
In the case of “TATTTGCAATATTATACACACATTAGATATTGCAAA [CACACA_site7565]”, the “gcPBM binding intensity (ln)” value is reported as 8.3 ± 0.43.
With “TAATATATATAACATATACACACGTTCATATATATA [CACACA_site462]” the “gcPBM binding intensity (ln)” value was 7.89 ± 0.46.
In the case of “AACAAATTAATTCTAGTGCAGGACGTATTTGTGTAC [GTGCAC_site9907]”, the “gcPBM binding intensity (ln)” value is reported as 9.12 ± 0.7.
“AAAAAAAAAAAAAAATGTACATATATAATATTTATA [XGTACX_site5117]” was tested, and the “gcPBM binding intensity (ln)” value was 8.13 ± 0.39.
“TACAAAATGTTATATCAATATAGATAAAAAAATGAA [XGTACX_negctrl_site285]” was tested, and the “gcPBM binding intensity (ln)” value was 7.71 ± 0.45.
“ATATATATAAATATATGTACATAAATATATTTGTAA [XGTACX_site6715]” was tested, and the “gcPBM binding intensity (ln)” value was 7.99 ± 0.46.
With “AATTAAACTTTGTTTTTGTTTTTTTTTTTTATATTT [CACACA_negctrl_site1316]” the “gcPBM binding intensity (ln)” value was 7.3 ± 0.48.
With “TCTTTAACAAGTTAAACACACATACCTATATACATA [CACACA_site7237]” the “gcPBM binding intensity (ln)” value was 7.73 ± 0.64.
In the case of “TGGTGATATACGAAATGTACGCAAATCACAAAATAA [XGTACX_site8836]”, the “gcPBM binding intensity (ln)” value is reported as 8.09 ± 0.65.
“AAATAAAAATTAAAAAAATAGAAACGAATTGAATGC [TGCATGCA_negctrl_site365]” was tested, and the “gcPBM binding intensity (ln)” value was 7.83 ± 0.64.
“CGCGTATAACGAAATTGTACAAAAAAAATTAAACAT [XGTACX_site6813]” was tested, and the “gcPBM binding intensity (ln)” value was 8.05 ± 0.59.
In the case of “CTTTCATATGTTTTAACACACACGCATATATTATAT [CACACA_site8615]”, the “gcPBM binding intensity (ln)” value is reported as 8.28 ± 0.54.
For “TTTTTTTTTTTGATTTGTACACAAAAAAAATATATG [XGTACX_site4547]”, the “gcPBM binding intensity (ln)” value was 8.1 ± 0.71.
For “TTTTTTTTTTGATGTTGTACATATATATTATATATA [XGTACX_site6377]”, the “gcPBM binding intensity (ln)” value was 8.02 ± 0.48.
“TTTTTTTTTTTTTTTTGTACATATTTTTAAACTATA [XGTACX_site2897]” was tested, and the “gcPBM binding intensity (ln)” value was 8 ± 0.59.
“AGATATATGGACGACTCACACATTTAAATTCATTCA [CACACA_site6047]” was tested, and the “gcPBM binding intensity (ln)” value was 7.88 ± 0.59.
With “ATTTATTTGTTTGTTTTTTTTACGATTTTTATTTTT [CACACA_negctrl_site1138]” the “gcPBM binding intensity (ln)” value was 7.69 ± 0.67.
In the case of “CGTATTTATATAATTACACACCATATTTTAATTATT [CACACA_site5960]”, the “gcPBM binding intensity (ln)” value is reported as 7.91 ± 0.47.
“ATAAACAATTAACAAACATGCAAATTTTAAATGTGT [TGCATGCA_site919]” was tested, and the “gcPBM binding intensity (ln)” value was 7.62 ± 0.73.
In the case of “ATCTATGATATATACACACACATGTATAAATAAATA [CACACA_site7012]”, the “gcPBM binding intensity (ln)” value is reported as 7.75 ± 0.47.
For “TAATTTTTTTTTCTTGTACACACTATTTTATAATTT [CACACA_site4078]”, the “gcPBM binding intensity (ln)” value was 8.09 ± 0.44.
“ATTTTTTTATAAAATTTTTATATATTATATAAATAT [GTGCAC_negctrl_site163]” was tested, and the “gcPBM binding intensity (ln)” value was 7.57 ± 0.58.
“TAAAAATAGTATACAACACACGAGGGAAAATAAAGT [CACACA_site3837]” was tested, and the “gcPBM binding intensity (ln)” value was 8.74 ± 0.74.
In the case of “TATCGAGCACGGCGTGTGGAGTTACAAAGAGGAGAA [CACACA_negctrl_site40]”, the “gcPBM binding intensity (ln)” value is reported as 8 ± 0.67.
For “AAATGTATAATATTTTCACACACAAGAAAAAAGAAA [CACACA_site9195]”, the “gcPBM binding intensity (ln)” value was 7.75 ± 0.49.
With “AGAAATGAAATATACACACATACATATATACATATA [CACACA_site4033]” the “gcPBM binding intensity (ln)” value was 7.66 ± 0.47.
With “ACCCTCATATTATAGACACACACAAAAAAAATAAAA [CACACA_site7941]” the “gcPBM binding intensity (ln)” value was 8.04 ± 0.23.
In the case of “ATTAATAATGAGTTATGTACATACATATTTTAAGAT [XGTACX_site7543]”, the “gcPBM binding intensity (ln)” value is reported as 7.96 ± 0.49.
With “TAAATACACCCTAGACGTACATAAAAATTTAGTATG [XGTACX_site2512]” the “gcPBM binding intensity (ln)” value was 7.84 ± 0.33.
With AAAAACAAACTGTGCATGCACCAAAAAAAAAAAAAA the “gcPBM binding intensity (ln)” value was 10.4 ± 0.35.
For “TAAACATACATATACACACACACACCCACACCCACA [CACACA_site492]”, the “gcPBM binding intensity (ln)” value was 8.06 ± 0.28.
With “TGTCCTTATGGGCACACACACATATAAGAAATTTAA [CACACA_site3187]” the “gcPBM binding intensity (ln)” value was 7.96 ± 0.31.
For “ATATTTATATATATGTGTACATATAGAAACATAAAA [XGTACX_site4355]”, the “gcPBM binding intensity (ln)” value was 7.88 ± 0.39.
For “CTTCTTATTTTCTAATGTACGTACAAATCATTTATA [XGTACX_site2176]”, the “gcPBM binding intensity (ln)” value was 8.45 ± 0.34.
In the case of “TTTTTTTTTTTAATTTGTACGAATCTTTTTATTTTA [XGTACX_site4516]”, the “gcPBM binding intensity (ln)” value is reported as 7.81 ± 0.81.
With “TATATAAAAAAACAAAGTACATGTTCTTAATCATTT [XGTACX_site8446]” the “gcPBM binding intensity (ln)” value was 7.52 ± 0.45.
“AAATGAACAAGTGGCACACACACATCATAACTAATT [CACACA_site5730]” was tested, and the “gcPBM binding intensity (ln)” value was 8.25 ± 0.47.
In the case of “CAAAATATATATACCACACACACATACCTCTATTTG [CACACA_site1853]”, the “gcPBM binding intensity (ln)” value is reported as 7.97 ± 0.44.
“ATATATTTTTTCTTAACACACATATATAAAATAAAA [CACACA_site3500]” was tested, and the “gcPBM binding intensity (ln)” value was 7.93 ± 0.42.
For “CACGCGAACATACATACACACACATATATATATATG [CACACA_site7951]”, the “gcPBM binding intensity (ln)” value was 7.94 ± 0.4.
In the case of “TATATATATATATACACACACACACCGATATATATA [CACACA_site8813]”, the “gcPBM binding intensity (ln)” value is reported as 9.32 ± 0.47.
With “AAATATAATATATGCACACATACATACAGATATATA [CACACA_site4235]” the “gcPBM binding intensity (ln)” value was 9.22.
“ATAAATATAGGACACACACACATATTATATATATAT [CACACA_site5658]” was tested, and the “gcPBM binding intensity (ln)” value was 9.04 ± 0.13.
“ATAATATAAATATGCACACAAATTATTACCCAAAAA [CACACA_site2524]” was tested, and the “gcPBM binding intensity (ln)” value was 8.79 ± 0.18.
For “GTTATATTCCTACAGAGTACATAAAAATGCACATCA [XGTACX_site1948]”, the “gcPBM binding intensity (ln)” value was 8.46 ± 0.39.
With “TTGCCCATTTAATTAACACACAAATGTTTATATTCT [CACACA_site6488]” the “gcPBM binding intensity (ln)” value was 7.94 ± 0.51.
With “TTTGAAATAAGCAAATGTACATTATTATTAAATATA [XGTACX_site6158]” the “gcPBM binding intensity (ln)” value was 7.53 ± 0.45.
With “TTCACATACAGAAACACACACATATATATAAATTAA [CACACA_site3705]” the “gcPBM binding intensity (ln)” value was 7.81 ± 0.42.
In the case of TGTATGATAACTATAGTGCATTTGGTAATTTTTCCA, the “gcPBM binding intensity (ln)” value is reported as 9.79 ± 0.18.
With “TATTTCATGATACAATGTACATGTATATATGATACC [XGTACX_site5057]” the “gcPBM binding intensity (ln)” value was 7.92 ± 0.46.
“AATAATATATATTACACACGCATCGTTCATTTATTT [CACACA_site2391]” was tested, and the “gcPBM binding intensity (ln)” value was 7.87 ± 0.92.
In the case of “ATATATACATATATTACACACTTCTTATTCTAAGAA [CACACA_site3022]”, the “gcPBM binding intensity (ln)” value is reported as 7.71 ± 0.49.
With “CTAGCAAATACATACACACACACACCGATACAGATA [CACACA_site5853]” the “gcPBM binding intensity (ln)” value was 7.96 ± 0.42.
For “TCCATAAAAATGGATACACACACATAATATATATAT [CACACA_site9207]”, the “gcPBM binding intensity (ln)” value was 8.79 ± 0.13.
